Measured values as given in PubChem BioAssay AID686971 (National Center for Advancing Translational Sciences (NCATS), 2013).
The campaign covered roughly 360,000 compounds. About 7,500 (2.1%) were called active. Inconclusive means that the source gave no clear call. Such entries were picked first, then a sample of the others. The call rests on the fitted dose curve; in most records, active means well fitted cell-killing curve with a large enough effect; inconclusive means small, poorly fitted or top-dose-only effect, or effect the other way, or another doubt; inactive means no such curve, though single readings can be large or run the other way. No potency is given beside an inconclusive call; the fits are too rough.

Assay: qHTS for induction of synthetic lethality in tumor cells producing 2HG: qHTS for the HT-1080-IDH1KD cell line;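 on activity, negative = toxicity: 0% = DMSO wells and -100% = cell-free medium wells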
Conditions: HT-1080 IDH1 knockdown viability, ATP luminescence, 48 h; activity, negative = toxicity: at 46.1 µM (top of the series) unless noted
In short: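 IDH1KD HT-1080 cells, 750/well, RPMI + 5% FBS; compound pinned after 2 h settling; 48 h, 37 °C; CellTiter-Glo luminescence; % activity normalised to DMSO and no-cell wells; curves fitted, classed by r2 and efficacy.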
Potency means the concentration at half of the fitted maximal effect; tags describe the fitted curve by direction and shape.

| SMILES | Potency | activity, negative = toxicity |
| --- | --- | --- |
| CCN1c2ccccc2-c2nc3ccccc3n2C1c1ccco1 (stereo unspecified) | inactive |  |
| CCOC(=O)c1oc2cc(OCC(N)=O)ccc2c(=O)c1-c1ccc(OC)c(OC)c1 | inconclusive [cytotoxic, single point] |  |
| CNC(=O)/C(C#N)=C/c1cc(C)n(-c2ccc(N3CCOCC3)cc2)c1C | inactive |  |
| COc1ccc(C2C(C(=O)Nc3cc(OC)c(OC)c(OC)c3)c3ccccc3C(=O)N2C)cc1 (stereo unspecified) | active: 1.46 µM |  |
| Cc1ccc(S(=O)(=O)Oc2ccc(/C=C(/NC(=O)c3ccccc3)C(=O)O)cc2)cc1 | inactive |  |
| CCOC(=O)[C@]12CCC=C1N(Cc1ccccc1)C(=O)[C@H](CC(=O)NCC13CC4CC(CC(C4)C1)C3)C2 | inconclusive [cytotoxic, single point] |  |
| COc1ccc(Br)cc1/C=N/NC(=O)CNC(=O)c1cccnc1 | inconclusive [cytotoxic, single point] |  |
| CC(=O)Oc1ccc(N(C(C)=O)S(=O)(=O)c2cccs2)c2ccccc12 | active: 17.8 µM |  |
| COc1cc2c(cc1OC)-c1cc(Nc3ccc(F)cc3)nc(=O)n1CC2 | inactive |  |
| COc1ccc(C(=O)/C=C2/C(=O)Nc3ccccc32)c(OC)c1 | active: 23.1 µM |  |
| CCOc1ccc(C(c2c(NC(=O)c3ccccc3)sc(C)c2C)N2CCN(CCO)CC2)cc1 (stereo unspecified) | inconclusive [cytotoxic, partial curve] |  |
| c1cncc(Nc2nc(-c3ccncc3)cs2)c1 | inconclusive [cytotoxic, single point] |  |
| COc1ccccc1/C=C1\SC(=S)N(CCC(=O)NCCCn2ccnc2)C1=O | inconclusive [cytotoxic, partial curve, poor fit] |  |
| CCc1ccc(/C(C)=N/Nc2cc(Cl)nc(C)n2)cc1 | inconclusive [cytotoxic, single point] |  |
| CC(C)c1ccccc1OCC(=O)Nc1ccccc1C(=O)N1CCOCC1 | inactive |  |
| O=C(NC1CCCC1)C1c2ccccc2OCC(=O)N1CCc1ccccc1 (stereo unspecified) | inactive |  |
| Cc1ccc(OCCCCCCN2CCNCC2)cc1 | inconclusive [cytotoxic, single point] |  |
| Cc1ccccc1-n1nnnc1Sc1nnnn1-c1ccccc1 | active: 14.6 µM |  |
| CC(=O)OCC(=O)C1CCC2C3CC=C4CC(O)CCC4(C)C3CCC12C (stereo unspecified) | inactive |  |
| CCC1(C)Cc2c(sc3[nH]c(=O)[nH]c(=O)c23)CS1 (stereo unspecified) |  | inactive: 7.56% [at 9.24 µM] |
| Cc1ccc2sc(N(CCCN(C)C)C(=O)c3ccc(S(=O)(=O)N(C)Cc4ccccc4)cc3)nc2c1C | inconclusive [cytotoxic, single point] |  |
